Where a name gives a salt, the structure may show the parent alone. Whole data set: some 2,800 compounds, median “cell viability relative to vehicle” near 0.98, cut for the lowest 2% near 0.45. Some of the results follow.
These compounds were tested on NCI-H2228 alectinib-DTP (assay: cell viability relative to vehicle (fraction of vehicle); NCI-H2228 is an ALK-positive lung cancer line and DTP means drug-tolerant persister; higher = less growth inhibition). Conditions: 100 nM; treatment time 6 days.
How it was run: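 The 3114-agent TargetMol anti-cancer compound library was tested at 100 nM for 6 days on parental NCI-H2228 cells and on persister cells derived with 1000 nM of a targeted drug for 13 days. ATP readout by the CellTiter-Glo 3D Cell Viability Assay gave cell viability relative to DMSO vehicle-treated cells.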

Row | Structure (SMILES) | cell viability
1 | CC(=O)NS(=O)(=O)c1ccc(N)cc1 [Sulfacetamide sodium salt hydrate] | 0.923
2 | C=CC1=C(C(=O)O)N2C(=O)[C@@H](NC(=O)/C(=N\O)c3csc(N)n3)[C@H]2SC1 [Cefdinir] | 1.14
3 | OCc1ccccc1O[C@@H]1O[C@H](CO)[C@@H](O)[C@H](O)[C@H]1O [Salicoside] | 1.04
4 | CNC(=O)c1ccccc1Nc1cc(Nc2ccc(N3CCOCC3)cc2OC)ncc1C(F)(F)F | 0.968
5 | CNC(=O)c1cc(Oc2ccc(NC(=O)Nc3ccc(Cl)c(C(F)(F)F)c3)cc2)ccn1 [Sorafenib] | 0.992
6 | CNC(=O)c1cc(Oc2ccc(NC(=O)Nc3ccc(Cl)c(C(F)(F)F)c3)cc2)ccn1 [Sorafenib tosylate] | 1.04
7 | COc1cccc2c1C(=O)c1c(O)c3c(c(O)c1C2=O)C[C@@](O)(C(C)=O)C[C@@H]3O[C@H]1C[C@H](N)[C@H](O)[C@H](C)O1 [Daunorubicin hydrochloride] | 0.638
8 | CONC(=O)Nc1ccc(-c2sc3c(c2CN(C)C)c(=O)n(-c2ccc(OC)nn2)c(=O)n3Cc2c(F)cccc2F)cc1 [Relugolix] | 1.12
9 | Cc1cc(Cn2nnc3c(-c4ccco4)nc(N)nc32)ccc1N [Vipadenant] | 0.954
10 | COc1cc(-c2oc3cc(O)cc(O)c3c(=O)c2O)ccc1O [Isorhamnetin] | 0.889
11 | CCn1cc(C(=O)O)c(=O)c2c(N)c(F)c(NC3CCCCC3)cc21 | 1.1
12 | CC/C(=C(\c1ccc(O)cc1)c1ccc(OCCNC)cc1)c1ccccc1 [(E/Z)-Endoxifen] | 1.13
13 | Cc1ccc(S(=O)(=O)Cc2nc(-c3ccc(C(=O)NCc4cccnc4)cc3)oc2C)cc1 | 0.955
14 | S=C(S)N1CCCC1 [Pyrrolidinedithiocarbamate ammonium] | 0.998
15 | CN(c1ccccc1CNc1nc(Nc2ccc3c(c2)CC(=O)N3)ncc1C(F)(F)F)S(C)(=O)=O | 1.08
16 | CC(C)COc1ccc(CNC(=O)N(Cc2ccc(F)cc2)C2CCN(C)CC2)cc1 [Pimavanserin] | 0.876
17 | CC(C)COc1ccc(CNC(=O)N(Cc2ccc(F)cc2)C2CCN(C)CC2)cc1 [Pimavanserin tartrate] | 1.06
18 | O=c1oc2c(O)c(O)cc3c(=O)oc4c(O)c(O)cc1c4c23 [Ellagic acid] | 1.04
19 | COc1cc(N2CCN(C)CC2)ccc1Nc1ncc2c(n1)N(C)c1ccccc1C(=O)N2 | 0.78
20 | c1ccc2c(CC3=NCCN3)cccc2c1 [Naphazoline hydrochloride] | 1.19
21 | CCN(CC)CC(=O)Nc1c(C)cccc1C [Xylocaine] | 1.1
22 | CC(=O)c1ccc(O)c(O)c1 [3',4'-Dihydroxyacetophenone] | 0.925
23 | CC(=O)c1cc2c(o1)C(=O)c1ccccc1C2=O [Napabucasin] | 0.984
24 | Cc1ccccc1C(C(=O)NC1CCCCC1)N(C(=O)Cn1ccnc1C)c1cccc(F)c1 (centres undefined) | 1.1
25 | CC(=O)NCCCCCC(=O)O [Acexamic Acid] | 1.22

Row | Structure (SMILES) | cell viability
26 | O=c1n(CCCN2CCN(c3cccc(Cl)c3)CC2)nc2ccccn12 [Trazodone hydrochloride] | 0.994
27 | O=C(O)c1cc(=O)[nH]c(=O)[nH]1 [Orotic acid] | 1.06
28 | C=C[C@H]1CN2CC[C@H]1C[C@H]2[C@H](O)c1ccnc2ccc(OC)cc12 [Quinine] | 1.16
29 | CC1(C)S[C@@H]2[C@H](NC(=O)[C@H](N)c3ccccc3)C(=O)N2[C@H]1C(=O)O [Ampicillin sodium] | 1.12
30 | O=C(O)c1ccc2cc(-c3ccc(O)c(C45CC6CC(CC(C6)C4)C5)c3)ccc2c1 | 0.819
31 | O=C(NC[C@H](O)CO)c1ccncc1Nc1ccc(I)cc1F [Pimasertib] | 0.836
32 | Oc1ccc(-c2nc(-c3ccc(F)cc3)c(-c3ccncc3)[nH]2)cc1 | 1.17
33 | Cc1ccc(C(=O)Nc2ccc(CN3CCN(C)CC3)c(C(F)(F)F)c2)cc1C#Cc1cnc2[nH]ncc2c1 | 0.423
34 | Cc1ccc(C(=O)Nc2ccc(CN3CCN(C)CC3)c(C(F)(F)F)c2)cc1C#Cc1cnc2[nH]ncc2c1 [GZD824 Dimesylate] | 0.33
35 | O=C(O)c1ccccc1OP(=O)(O)O [Fosfosal] | 0.837
36 | C/C=C(/C(=C/C)c1ccc(O)cc1)c1ccc(O)cc1 [Dienestrol] | 1.13
37 | CC1=C(/C=C/C(C)=C/C=C/C(C)=C/CO)C(C)(C)CCC1 [Retinol] | 1.01
38 | OCCn1cc(-c2cnc3nnn(Cc4ccc5ncccc5c4)c3n2)cn1 | 1.03
39 | COc1ccc2c3ccnc4ccc(=O)n(c2c1)c43 [9-Methoxycanthin-6-one] | 0.841
40 | Nc1cc(N2CCCCC2)nc(N)[n+]1[O-] [Minoxidil] | 1.08
41 | C[C@]12CCC(=O)C=C1[C@@H]1C[C@@H]1[C@H]1[C@@H]3[C@@H]4C[C@@H]4[C@@]4(CCC(=O)O4)[C@@]3(C)CC[C@@H]12 [Drospirenone] | 0.859
42 | O=[N+]([O-])c1ccc(Nc2ccccc2-c2ccccc2)c2nonc12 | 0.879
43 | COc1ccc2cc([C@H](C)C(=O)O)ccc2c1 [Naproxen] | 0.744
44 | COC(=O)C[C@](O)(CCCC(C)(C)O)C(=O)O[C@@H]1C(OC)=C[C@]23CCCN2CCc2cc4c(cc2[C@H]13)OCO4 [Homoharringtonine] | 0.2
45 | C=C(C)[C@@H]1CC[C@]2(CO)CC[C@]3(C)[C@H](CC[C@@H]4[C@@]5(C)CC[C@H](O)C(C)(C)[C@@H]5CC[C@]43C)[C@@H]12 [Betulin] | 0.922
46 | CC(=O)O/N=C1/C(c2c(O)[nH]c3cc(Br)ccc23)=Nc2ccccc21 [BIO-acetoxime] | 0.726
47 | COc1cccc2c1C(=O)c1c(O)c3c(c(O)c1C2=O)C[C@@](O)(C(=O)CO)C[C@@H]3O[C@H]1C[C@H](N)[C@@H](O)[C@H](C)O1 [Epirubicin hydrochloride] | 0.767
48 | CN1CCC(Nc2nc(Nc3ccc(Oc4ccccc4)cc3)c3c(=O)[nH]cc(Br)c3n2)CC1 | 0.973
49 | CC(=O)O[C@H]1C(=O)[C@@]2(C)[C@H]([C@H](OC(=O)c3ccccc3)[C@]3(O)C[C@H](OC(=O)[C@H](O)[C@@H](NC(=O)c4ccccc4)c4ccccc4)C(C)=C1C3(C)C)[C@]1(OC(C)=O)CO[C@@H]1C[C@@H]2O [Paclitaxel] | 0.472

Source: the supplement of paper PMC10600219
